In PubChem BioAssay AID1346428 (National Center for Advancing Translational Sciences (NCATS), 2018):
Hit rate of the full screen: of about 48,000 compounds, about 1,200 (2.5%) were called active. Not shown: some 2% with an inconclusive outcome.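 The calls were made as follows: active = activation of at least 60% and not above a set upper limit (about 1 call in 100 departs from these limits); inconclusive = activation of 40% to 60%, or above that upper limit; inactive = activation under 40%.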 The list shows a part of the results.

molecular target: Probable G-protein coupled receptor 32 (Homo sapiens) (UniProt O75388); assay: qHTS for Agonists of Human Resolvin D1 Receptor DRV1; conditions: CHO-K1 GPR32 beta-arrestin PathHunter luminescence, 90 min; at 76.9 µM; hits give high values; zero percent set by DMSO-only wells; also: 0% is about no effect
Procedure, shortened: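 Cells are plated overnight, treated with compounds in DMSO for 90 minutes at 37 °C, and developed with PathHunter detection reagent for 1 hour before luminescence is read; signal reflects beta-arrestin binding to GPR32 in engineered CHO-K1 cells.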

Sequence of UniProt O75388 (O75388 whole entry, looked up): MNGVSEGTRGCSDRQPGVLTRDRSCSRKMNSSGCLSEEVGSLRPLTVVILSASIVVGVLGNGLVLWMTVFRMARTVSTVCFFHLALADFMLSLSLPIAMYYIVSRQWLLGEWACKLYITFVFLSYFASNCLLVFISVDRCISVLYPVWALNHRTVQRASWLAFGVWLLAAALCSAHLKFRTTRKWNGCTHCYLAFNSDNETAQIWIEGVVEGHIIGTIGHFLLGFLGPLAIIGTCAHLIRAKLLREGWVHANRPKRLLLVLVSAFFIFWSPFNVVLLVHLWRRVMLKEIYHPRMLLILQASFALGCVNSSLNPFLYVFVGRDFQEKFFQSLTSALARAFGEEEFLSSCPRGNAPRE

Row | SMILES | activation
1 | CC(C)CCCC(C)CCCC(C)CCCCC(C)CCCC(C)CCCC(C)C (centres undefined) | inactive: 38.5%
2 | Cc1nc(-c2ccc(F)cc2)sc1CCNC(=O)c1cccs1 | inactive: 7.95%
3 | O=C(CN1C(=O)CSc2ccc(S(=O)(=O)N3CCOCC3)cc21)NCCCN1CCCCC1 | inactive: 0.489%
4 | Cc1ccc(C)c(NC(=O)Cn2c(SCC(=O)NCc3ccccc3)nc3ccccc32)c1 | inactive: -14.2%
5 | CCc1ccc(NC(=O)Cn2c(=O)n(-c3ccccc3C)c(=O)c3c2c2cc(OC)ccc2n3C)cc1 | inactive: -6.46%
6 | COc1ccc(NC(=O)CSc2nc3ccccc3nc2N2CCCCC2)cc1 | inactive: -3.72%
7 | CC(=O)N1CCOc2cc(S(=O)(=O)NCc3ccccc3Cl)c(Cl)cc21 | inactive: -6.66%
8 | CCOc1ccc(NC(=O)Cn2nc3c(cc2=O)CC(C)CC3)cc1 (centres undefined) | inactive: -10.2%
9 | CCOC(=O)c1[nH]c2c(c1Cc1ccccc1)C(=O)CC(c1ccccc1)C2 (centres undefined) | inactive: -30.9%
10 | CCN1CCN(C(c2ccccc2Cl)c2sc3nc(-c4ccco4)nn3c2O)CC1 (centres undefined) | inactive: -14.5%
11 | CCOC(=O)c1ccccc1NC(=O)N1CCC(CN2CCOCC2)CC1 | inactive: -15.1%
12 | CCOc1ccc(N(CC(=O)Nc2ccc(OC)cc2)S(=O)(=O)c2ccc(Cl)cc2)cc1 | inactive: -3.78%
13 | Cc1ccc(-c2noc(-c3nnn(CC(=O)Nc4ccc(C)c(Cl)c4)c3N)n2)cc1 | inactive: 3.44%
14 | CC(C)Oc1ccc(C(=O)NCC(c2ccc(N(C)C)cc2)N2CCc3ccccc32)cc1 (centres undefined) | inactive: -25.7%
15 | CCN(c1ccccc1)S(=O)(=O)c1nnc(NC(=O)C2CCCCC2)s1 | inactive: -15.7%
16 | COc1ccc2c(c1)c(N1CCCC1=O)c(C(=O)Nc1cc(C)c(Cl)cc1OC)n2C | inactive: 13.9%
17 | CCn1c(=O)c2sccc2n2c(CCC(=O)Nc3ccc(F)cc3)nnc12 | inactive: 13.7%
18 | Cc1ccc2c(C)c(C(=O)N(Cc3ccc(N(C)C)cc3)Cc3ccco3)oc2c1C | inactive: -29.6%
19 | O=C(CCSCCc1ccccn1)Nc1ccc(Cl)cc1 | inactive: 7.96%
20 | O=C(Nc1ccc(Br)cc1)c1cc(S(=O)(=O)NC2CCCC2)ccc1F | inactive: 12.2%
21 | Cc1ccc2c(c1)cc1c(=O)n(Cc3ccccc3Cl)nc(C)n12 | inactive: 3.74%

Row | SMILES | activation
22 | COc1ccc(Nc2nn3c(=O)c4cc5c(cc4nc3s2)OCO5)c(OC)c1 | inactive: -6.73%
23 | Cc1ccc(Cl)cc1-n1nnc(-c2nc(-c3ccc4c(c3)OCO4)no2)c1C | inactive: -5.12%
24 | Cc1cccc(N(C)S(=O)(=O)c2cc(-c3cnc(C4CC4)o3)ccc2C)c1 | inactive: 9.16%
25 | O=C(CCNS(=O)(=O)c1ccc2c(c1)CCN2C(=O)C1CC1)N1CCN(c2cccc(Cl)c2)CC1 | active: 60.6%
26 | CCOc1ccc(/C=C/C(=O)Nc2ccc3nc(N(CC)CC)cc(C)c3c2)cc1OC | inactive: -21.2%
27 | CCC(=O)N1c2ccc(S(=O)(=O)CCC(=O)Nc3ccc(OC)cc3OC)cc2CC1C (centres undefined) | inactive: -10.1%
28 | CCc1ccc(C2c3c(-c4ccccc4O)n[nH]c3C(=O)N2Cc2cccnc2)cc1 (centres undefined) | inactive: -12.9%
29 | CCC(=O)N1CCc2cc(CNS(=O)(=O)c3ccc(CC(C)C)cc3)ccc21 | inactive: -11.3%
30 | CCN1CCN(c2ncc3c(n2)CCN(Cc2ccccc2C)C3)CC1 | inactive: -25.4%
31 | Cc1ccc(CS(=O)(=O)c2ncc(Cl)c(C(=O)Nc3nnc(C(C)C)s3)n2)cc1 | inactive: -12.9%
32 | CCc1ccc(-n2nc(CO)c(C(=O)NC)n2)cc1 | inactive: -2.04%
33 | COc1ccc(-c2nc(CS(=O)CC(=O)NCCc3ccc(Cl)cc3)c(C)o2)cc1OC (centres undefined) | inactive: -11.6%
34 | CC(C)CCNC(=O)C1CCN(C(=O)c2cc3sccc3n2Cc2ccc(Cl)cc2)CC1 | inactive: -14.7%
35 | CCCS(=O)(=O)N1CC(=O)N(c2ccc(C)c(Cl)c2)C(C)(C(=O)NC2CCCCCC2)C1 (centres undefined) | inactive: -5.74%
36 | Cc1cccc(N2CCN(C(=O)Cn3c(-c4cccs4)cc4ccccc43)CC2)c1C | inactive: -10.1%
37 | Cc1ccc2c(CC(=O)Nc3ccc(S(=O)(=O)N4CCCCC4)cc3)coc2c1C | inactive: -10.1%
38 | COc1cc(CN(C(=O)c2ccccc2F)C2CCS(=O)(=O)C2)cc(OC)c1OC (centres undefined) | inactive: -6.42%
39 | CN1C(=O)C2(c3ccccc31)N(c1cccc(C(F)(F)F)c1)C(=O)CS2(=O)=O (centres undefined) | inactive: 2.97%
40 | CCCCNC(=O)CCCN1C(=O)c2ccccc2Sc2ncccc21 | inactive: -16.6%
41 | Oc1c(C(c2ccc(F)cc2)N2CCN(Cc3ccccc3)CC2)sc2nc(-c3ccco3)nn12 (centres undefined) | active: 64.8%
42 | COC(=O)c1sccc1S(=O)(=O)N(CC(=O)Nc1cccc(C)c1C)c1ccc(C)c(C)c1 | inactive: -19%

Row | SMILES | activation
43 | COc1ccccc1CNC(=O)Cn1cc2c(n1)-c1c(oc(C(=O)N3CCOCC3)c1C)CC2 | inactive: -16.5%
44 | COc1cc(OC)c(NC(=O)Cn2ncn3c(cc4cc(C)ccc43)c2=O)cc1Cl | inactive: -9.4%
45 | Cc1cccc(NC(=O)CSC2=Nc3ccccc3C3=NC(CCC(=O)NCc4ccco4)C(=O)N23)c1 (centres undefined) | inactive: -5.96%
46 | CCc1ccc(-c2cn3nc(CC)sc3n2)cc1 | inactive: -9.28%
47 | CCc1ccccc1NC(=O)c1ccc2c(c1)CCCN2S(C)(=O)=O | inactive: -5.79%
48 | Cc1ccc(-c2onc(C)c2C)cc1S(=O)(=O)Nc1ccccn1 | inactive: -4.94%
49 | COc1ccc2c(c1)c1c(c(=O)n(CCc3ccccc3)c(=O)n1Cc1cccc(F)c1)n2C | inactive: -25.7%
50 | CCSc1nc2ccccc2c(OCc2ccc(Cl)cc2)c1C(=O)OC | inactive: -17.7%
51 | COc1ccc2c(C)c(CC(=O)NCc3ccccc3Cl)c(=O)oc2c1OC | inactive: -2.39%
52 | CC(C)CN(CCNC(=O)CCN1N=C(c2ccccc2)CCC1=O)CC(C)C | inactive: -6.82%
53 | CN(C)S(=O)(=O)N1CCC(n2c(C(F)(F)F)nc3cccnc32)CC1 | inactive: 16.2%
54 | CC(C)(C)OC(=O)N1CCC(c2c(C(=O)N3CCN(Cc4ccccc4)CC3)cnn2-c2cccc(Cl)c2)CC1 | inactive: -10.6%
55 | COc1ccc(Cn2c(CO)cnc2SCc2ccc(C)cc2)cc1 | inactive: -4.41%
56 | COc1ccc(CCNC(=O)CN(c2ccccc2)S(=O)(=O)N(C)C)cc1OC | inactive: -8.12%
57 | COc1ccc(-c2nc3cc(NC(=O)COc4ccccc4C)ccc3o2)cc1 | inactive: -3.7%
58 | CCc1cccc(C)c1NC(=O)CSc1nc2ccccc2nc1Cc1ccccc1 | inactive: -12.7%
59 | Cc1ccc(NC(=O)c2oc3ccc(S(=O)(=O)N4CCC5(CC4)OCCO5)cc3c2C)cc1Cl | inactive: -14.6%
60 | CC(=O)N1CCC(N(CCCOC(C)C)C(=O)Nc2ccc(C)c(C)c2)CC1 | inactive: -12.9%
61 | O=C(CN1C(=O)CCSc2ccc(S(=O)(=O)N3CCCC3)cc21)Nc1cccc(F)c1 | inactive: -15.7%
62 | CCOC(=O)c1c(NC(=O)c2cc(-c3ccc(OC)c(OC)c3)on2)sc2c1CCCC2 | inactive: 20.2%
63 | CCc1c(C)sc2c1CCN(Cc1ccc(C#N)cc1)C2c1ccccc1 (centres undefined) | inactive: -11.8%

Row | SMILES | activation
64 | COC(=O)CC1Oc2ccccc2-n2cc(-c3ccc(F)cc3)nc21 (centres undefined) | inactive: 45.3%
65 | COc1cc(C(c2c(C)[nH][nH]c2=O)c2c(C)[nH][nH]c2=O)ccc1OC(=O)c1ccccc1OC | inactive: -34.3%
66 | CCOC(=O)C(C)NC(=O)c1c2c(nc3ccccc13)C(=O)N(C1CCCCC1)C2 (centres undefined) | inactive: -2.49%
67 | Fc1ccc(Nc2nc3ccccc3n3cnnc23)c(F)c1 | inactive: 4.55%
68 | O=C(c1ccc(F)cc1)n1nc(-c2cccnc2)nc1NCc1ccccc1 | inactive: -21.8%
69 | COc1ccc(-n2ccnc(NCCc3ccccc3)c2=O)cc1OC | inactive: 45.2%
70 | COc1ccc(Oc2nc3c(c(=O)n(Cc4ccc(Br)cc4)c(=O)n3C)n2C)cc1 | inactive: 6.15%
71 | COc1cccc(C(=O)N(Cc2nc(-c3ccc(Cl)cc3)no2)C(C)C)c1OC | inactive: 10.1%
72 | COc1ccc(NC(=O)c2nc(-c3ccc(C)cc3)n3c2CCCCC3)cc1 | inactive: -24.2%
73 | CCSc1nc2ccccc2c(OCc2ccccc2Cl)c1C(=O)OC | inactive: -8.63%
74 | COc1ccccc1CNC(=O)COCc1cc(-c2cccs2)on1 | inactive: -18.5%
75 | Cc1ccc(N(CC(C)C)S(=O)(=O)c2nnc(NC(=O)C(C)C)s2)cc1 | inactive: -13.9%
76 | CC(C)(C)c1ccc(C(=O)Nc2c(C(=O)c3ccc(F)cc3)oc3ccccc23)cc1 | inactive: -6.12%
77 | Cc1nn(C(C)C(=O)Nc2ccccc2C(F)(F)F)c(=O)c2c1sc1ccccc12 (centres undefined) | inactive: -13%
78 | Cc1nc2nc(CNC(=O)c3cccc(F)c3)nn2c(C)c1CCC(=O)Nc1cccc(Cl)c1 | inactive: -6.11%
79 | Cc1ccc(CNC(=O)c2cnc3c(-c4ccc(F)cc4)c(C)nn3c2C)o1 | inactive: -8.31%
80 | COc1ccc(Cl)cc1NC(=O)c1cnc2sc(N3CCOCC3)nn2c1=O | inactive: -4.08%
81 | Cc1ccc2oc(-c3ccc(Cl)c(NC(=O)c4cc5ccccc5o4)c3)nc2c1 | inactive: -10.2%
82 | CN1CCN(CCNC(=O)c2cnn(-c3ccc(Cl)cc3)c2C2CCN(C(=O)OC(C)(C)C)CC2)CC1 | inactive: -9.45%
83 | CCOc1ccc(-c2nonc2NC(=O)c2oc3ccc(CC)cc3c2C)cc1 | inactive: -23%
84 | CCN(C(=O)C1CCN(S(=O)(=O)c2c(C)noc2/C=C/c2ccc(C)cc2)CC1)c1cccc(C)c1 | inactive: -4.86%
